# Test results taken from paper PMC4336329 (PLoS ONE, 2015).
# Screen size: about 310,000 compounds; about 14,000 (4.5%) showed an effect of 50% or more. The effect is printed as a negative number. Some of the results follow.
# Molecular target: human ether-à-go-go-related gene (hERG) potassium channel (human, UniProt Q12809)
# Experiment: primary screen, population patch clamp on CHO cells stably expressing hERG
# 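Further: peak tail current of the secondary pulse compared with the same well before compound.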
# Sequence of human ether-à-go-go-related gene (hERG) potassium channel (Q12809 whole entry, looked up): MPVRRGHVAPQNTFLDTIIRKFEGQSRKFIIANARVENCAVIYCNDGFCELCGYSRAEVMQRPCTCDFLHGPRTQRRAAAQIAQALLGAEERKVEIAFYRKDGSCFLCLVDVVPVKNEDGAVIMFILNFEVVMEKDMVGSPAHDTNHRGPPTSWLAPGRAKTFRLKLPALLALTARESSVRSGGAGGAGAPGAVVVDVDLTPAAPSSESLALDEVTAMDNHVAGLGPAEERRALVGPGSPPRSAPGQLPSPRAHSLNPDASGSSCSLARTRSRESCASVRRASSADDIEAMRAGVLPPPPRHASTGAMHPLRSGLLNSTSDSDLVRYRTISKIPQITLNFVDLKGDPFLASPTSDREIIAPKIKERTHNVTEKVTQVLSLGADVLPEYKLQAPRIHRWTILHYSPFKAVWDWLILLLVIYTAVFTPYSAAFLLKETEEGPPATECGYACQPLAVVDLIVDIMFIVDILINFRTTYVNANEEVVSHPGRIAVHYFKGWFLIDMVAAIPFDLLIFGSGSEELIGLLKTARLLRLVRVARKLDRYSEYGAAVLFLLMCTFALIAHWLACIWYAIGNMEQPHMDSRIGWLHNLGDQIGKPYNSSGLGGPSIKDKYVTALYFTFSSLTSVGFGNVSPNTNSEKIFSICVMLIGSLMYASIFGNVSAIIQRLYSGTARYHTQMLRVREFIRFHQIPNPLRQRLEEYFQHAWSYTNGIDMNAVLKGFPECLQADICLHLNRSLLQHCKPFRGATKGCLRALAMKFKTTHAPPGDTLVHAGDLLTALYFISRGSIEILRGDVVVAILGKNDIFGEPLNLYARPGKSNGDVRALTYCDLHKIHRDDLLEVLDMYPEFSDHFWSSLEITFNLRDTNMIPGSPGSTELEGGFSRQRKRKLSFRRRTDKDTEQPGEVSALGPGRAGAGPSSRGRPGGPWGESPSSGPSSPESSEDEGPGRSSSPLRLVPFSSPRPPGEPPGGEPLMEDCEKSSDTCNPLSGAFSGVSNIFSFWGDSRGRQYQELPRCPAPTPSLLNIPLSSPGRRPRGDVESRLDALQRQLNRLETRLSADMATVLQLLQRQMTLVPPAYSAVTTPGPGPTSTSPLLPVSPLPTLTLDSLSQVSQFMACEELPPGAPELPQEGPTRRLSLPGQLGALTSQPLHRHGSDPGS
row,SMILES,"hERG current change (%, negative = inhibition) at 10uM"
1,COc1ccccc1OCC(=O)Nc1ccc(Cl)cc1,-8.9%
2,N#Cc1c(N2CCN(C(=O)c3ccccc3)CC2)nc(-c2ccccc2)c2c1CCCC2,-18.6%
3,CN1CCC(=O)N([C@H](CO)c2ccccc2)CC1,3.76%
4,C/C(Cl)=C/Cc1c(C)[nH]c2ccc(C)cc2c1=O,4.26%
5,CCOC(=O)C1CCN(CCC(=O)Nc2ccccc2)CC1,-19.7%
6,Cc1cc(C(F)F)n2ncc(C(=O)NCCc3ccc(Cl)cc3)c2n1,-45%
7,CCc1cccc(OCCn2nc(C(=O)O)c3ccccc3c2=O)c1,0.597%
8,O=C(CN(C(=O)CNC(=O)c1cccs1)c1ccccc1F)NC1CCCC1,10.6%
9,O=C(CC1SC(N2CCCC2)=NC1=O)Nc1ccc(C(=O)N2CCCC(C(F)(F)F)C2)cc1 (stereo not shown),18.8%
10,COCC(C)N1C(=O)Cc2c1nc(N)c1c(N)nc(N3CCN(c4ccccc4F)CC3)c(C#N)c21 (stereo not shown),-13.1%
11,Nn1c(Cc2cccc3ccccc23)nnc1SCn1nnc2ccccc2c1=O,-1.1%
12,CNc1nnc(-c2cccc(N(C)C)c2)s1,2.36%
13,C/C(=N\NC(=O)c1ccc(N(C)C)cc1)c1ccc(C)cc1C,-3.46%
14,O=C(CSc1nnc(CNC(=O)c2ccccc2)o1)Nc1ccc2c(c1)OCO2,-3.52%
15,CCOC(=O)C1CCCN(Cc2nc(N)nc(Nc3ccc(Cl)cc3)n2)C1 (stereo not shown),-79%
16,O=c1c(-c2ccc(O)cc2)coc2cc(O)ccc12,13.2%
17,CCOc1ccc(C(=O)Nc2nnc(C(C)C)s2)cc1OCC,6.54%
18,CCCC/C(O)=C/c1nc2ccccc2[nH]c1=O,5.3%
19,Cc1nn(-c2ccc(F)cc2)c(Cl)c1/C=C/C(=O)OCC(=O)Nc1ccc(F)cc1F,15.5%
20,Clc1ccc(/C=N/N2CCCCC2)cc1,7.36%
21,O=C(Cc1cccs1)NCCc1cn2ccccc2n1,-11.7%
22,CN1CCC2(CC1)NC(=O)NC2=O,-6.06%
23,COc1cc(C=C2C(=O)OC(c3ccccc3)OC2=O)cc(Br)c1O (stereo not shown),10.9%

row,SMILES,"hERG current change (%, negative = inhibition) at 10uM"
1,Cc1nn(C)c(C(=O)NNC(=S)NCc2ccco2)c1Cl,7.69%
2,COc1ccccc1CCNC(=O)c1nccnc1C(=O)O,21.6%
3,Cc1ccc(C)c(S(=O)(=O)N2CCN(C(=O)CSc3ccccc3F)CC2)c1,-14.7%
4,Cc1cccc(C(=O)NCc2ccc(S(N)(=O)=O)cc2)c1[N+](=O)[O-],-5.81%
5,COC(=O)C1=C(c2ccc(F)cc2F)C[C@@H]2CC[C@H]1N2C(=O)N1CCC(C)CC1,-6.57%
6,COc1ccc(OC)c(-n2c(-c3cc(-c4ccc(F)cc4)n[nH]3)n[nH]c2=S)c1,20.6%
7,Cc1cccc(C)c1Nc1nnc(SCC(=O)c2ccc(Br)s2)s1,6.62%
8,COC(=O)CC1c2cc(OC)c(OC)cc2CC(=O)c2cc(OC)c(OC)cc21 (stereo not shown),6.73%
9,CCCC(C)NC(=O)COC(=O)c1cccc(NS(C)(=O)=O)c1 (stereo not shown),-0.372%
10,Nc1nonc1-n1nnc(C(=O)O)c1-c1cccs1,14.3%
11,CC1CC(=S)Nc2ccccc2S1 (stereo not shown),11.1%
12,Cn1cc(C(=O)Nc2cccc(F)c2)cn1,15.3%
13,COc1cc(C(=S)N2CCOCC2)cc(OC)c1OC(=O)Cc1ccccc1,3%
14,Cc1ccc(-c2cc(N)n(Cc3ccc(Cl)cc3)n2)cc1,-13.6%
15,Cc1cc(C)nc(N/N=C/c2ccccc2OCc2cccc(Br)c2)n1,-6.27%
16,CN(C(=O)c1cc(S(=O)(=O)N2CCc3ccccc32)cn1C)C1CCCCC1,-26.3%
17,CC(C)NC(=O)c1cc(-c2ccco2)on1,2.16%
18,Cc1ccc(-c2cc(C(=O)NCCCn3ccnc3)no2)cc1,-42.9%
19,CC(NC(=O)CCc1nnc(CCCc2ccccc2)o1)c1ccccc1 (stereo not shown),-0.0441%
20,O=C(CSc1nnc(-c2cccs2)n1CC1CCCO1)N1CCCC1 (stereo not shown),-14.4%
21,Cc1sc2ncnc(SCC(=O)c3cccs3)c2c1C,-11.8%
22,CN1C(=O)Cc2cc(S(=O)(=O)Nc3ccc(N4CCOCC4)cc3)ccc21,5.48%
23,O=C(COC(=O)CCc1ccccc1)NC(c1ccccc1)c1ccccc1,3.65%

row,SMILES,"hERG current change (%, negative = inhibition) at 10uM"
1,Cc1cc(C)c(NC(=O)C2CCC(=O)N2)c(C)c1 (stereo not shown),16.2%
2,Cc1noc(C)c1CSc1ccccc1C(=O)Nc1nccs1,1.74%
3,CCCCCn1c(=O)c(C(=O)NCc2ccccc2Cl)c(O)c2ccccc21,18.9%
4,COCCOC(=O)c1c(N)n(CCCN2CCOCC2)c2nc3ccccc3nc12,-53.3%
5,CCCN1CCc2c(sc(NC(=O)CCS(=O)(=O)c3ccccc3)c2C(N)=O)C1.Cl,-27.3%
6,Cc1ccc2c(c1)C(c1ccc(N3CCOCC3)cc1)=NNC(c1cccs1)=N2,1.66%
7,Cc1ccc(NC(=O)CC2S/C(=N/c3nccs3)N(C)C2=O)cc1C (stereo not shown),-0.441%
8,CCCc1ccc(-c2c(C)sc(N)c2C#N)cc1,16.3%
9,CC(C)C(=O)NC(Nc1ccccc1F)C(Cl)(Cl)Cl (stereo not shown),3.48%
10,Cc1ccc(NC(=S)NCc2ccc(S(N)(=O)=O)cc2)c(C)c1,8.36%
11,CN(C)CC/C=C1\c2ccccc2Sc2cc(F)c(Cl)cc21.Cl,7.2%
12,CCc1nnc(NC(=O)CSc2ccc(Cl)cc2)s1,-3.04%
13,COc1ccc(-c2noc(-c3ccc(Br)o3)n2)cc1OC,2.67%
14,Cc1ccc(S(=O)(=O)Nc2ccc(C(=O)N3CCCC3)cc2)c(C)c1NS(C)(=O)=O,14.5%
15,COCCCNC(=O)CN(c1ccc(F)cc1)S(=O)(=O)c1ccc2c(c1)OCCO2,-15%
16,COc1cccc(-n2c(C)nc3c(cnn3-c3ccc(C)cc3)c2=O)c1,2.38%
17,CCC1Cc2c(nc(N)c3c(N)nc(N4CCOCC4)c(C#N)c23)O1 (stereo not shown),18%
18,Cc1cc(OCC(=O)NCc2cccnc2)c2c(C)c(C)c(=O)oc2c1,-19.4%
19,Cc1ccc(CC2C(=O)N(c3nc(C)cc(C)n3)C(=O)C2C)cc1 (stereo not shown),2.42%
20,CCOC(=O)c1ccc(Cl)c(NC(=O)c2cccnc2)c1,-2.41%
21,Nc1c(C(=O)NCc2ccc(Cl)cc2)sc2nc3c(c(C(F)(F)F)c12)CCC3,-15.7%
22,CC(Sc1nc(N2CCOCC2)nc(N2CCOCC2)n1)C(=O)Nc1ccccc1 (stereo not shown),14.3%
23,COc1ccc(CCNC(C)C(=O)Nc2ccc(S(N)(=O)=O)cc2)cc1 (stereo not shown),-9.23%

row,SMILES,"hERG current change (%, negative = inhibition) at 10uM"
1,CCOC(=O)c1c(/N=C/c2ccc(O)cc2O)sc2c1CCC2,15.7%
2,O=C(COC(=O)c1cccc2c1C(=O)c1ccccc1C2=O)NC1CCCCC1,-39.2%
3,Cc1ccc(NC(=O)CSc2nnc(-c3ccco3)n2N)cc1F,12.4%
4,Clc1ccc(-c2nnnn2-c2ccc(Cl)c(Cl)c2)cc1Cl,5.62%
5,COc1cccc(NC(=O)CN(C)C(=O)c2ccc(-c3ccccc3Cl)o2)c1,-30.2%
6,O=C(CN1C(=O)S/C(=C\c2ccc(Cl)cc2)C1=O)NCCCn1ccnc1,-68.2%
7,Cc1ccsc1/C=C(\C#N)C(=O)Nc1c(C)n(C)n(-c2ccccc2)c1=O,-11.1%
8,CCCCn1c(=N)n(CC(O)COc2ccc(C)cc2)c2ccccc21.Cl (stereo not shown),-81.8%
9,COCCCN1C(=O)C(=O)/C(=C(/O)c2ccc(S(=O)(=O)N3CCOCC3)cc2)C1c1ccc(C(C)C)cc1 (stereo not shown),-0.0518%
10,CC(C)(C)NC(=O)CN(Cc1ccccc1)S(=O)(=O)c1ccccc1,-9.12%
11,O=C(CSc1nnc(COc2cccc3cccnc23)o1)N1CCCC1,3.55%
12,CCn1ccc(C(=O)NC2CCCC2)n1,8.02%
13,O=C(O)CC(CC(=O)Nc1ccc(-n2ccc(C(F)(F)F)n2)cc1)c1ccccc1 (stereo not shown),6.08%
14,O=C(O)c1cc(-c2ccc(Cl)cc2)n(-c2ccccc2)n1,30.3%
15,CCCCNC(=O)COC(=O)CCC(=O)c1cccs1,12.8%
16,O=C(NCCC(c1ccccc1)c1ccccc1)c1cnc2sccn2c1=O,11.9%
17,O=C(O)c1ccc2cc(-c3ccccc3)[nH]c2c1,-30.8%
18,CCOC(=O)c1nn(-c2ccccc2)c(=O)cc1OCC(=O)Nc1cc(C)ccc1C,-4.22%
19,CC1(C)CC(=O)C(C2(O)C(=O)NC(=O)NC2=O)=C(O)C1,-11.4%
20,O=C(CC1CCCC1)Nc1ccc(Br)cc1,-4.39%
21,CCN(CC)C(=O)C(=O)c1cccn1-c1cccc(Cl)c1C#N,2.32%
22,CN(CC(=O)Nc1ccccc1C(F)(F)F)C(=O)c1cc2c(s1)CCCCC2,-29.2%
